Assay results as given in the supplement of paper PMC10126150.
Values marked as one replicate rest on one cluster of the flow cell; about a third of the high ones do not repeat.

Test system: ATP
Test: switch fluorescence ratio, 500 uM ATP over buffer (Cy3 cluster intensity, sum of 5 cycles each) (fold (ratio)); higher = stronger signal-on switching upon ATP binding; sequences stand for … in TCGTCGGCAGCGTCAGATGTGTATAAGAGACAGTTTTTTTTTTTTTTTTTTTTTTTTT…TC
Settings: aptamer strand: ATP DNA aptamer (quencher-CACCTGGGGGAGTATTGCGGAGGAAGG + anchor), 100 nM annealed; ATP concentration: 500 uM; one replicate
Outline: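 The fluorescence ratio divides summed target-cycle Cy3 intensity by summed buffer-cycle Cy3 intensity for each cluster and is averaged per switch-domain sequence. Cy3-labelled switching-strand clusters on a modified Illumina MiSeq flow-cell were annealed to 100 nM quencher-labelled ATP aptamer, then imaged in selection buffer and again after 15 min with 500 uM ATP at 22 °C. Five such cycles were run, with NaOH stripping and re-annealing between them, and clusters outside 100-1000 RFU were excluded.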
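Further: ATP exposure 15 min at 22 °C before imaging.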

| Sequence | switch fluorescence ratio |
| --- | --- |
| GGTTTAGAAT | 0.967 |
| GGTTTAGC | 1.03 |
| GGTTTCAGTT | 1.02 |
| GGTTTCATA | 1.01 |
| GGTTTCCAAC | 0.993 |
| GGTTTGAAGA | 0.976 |
| GGTTTGATTC | 1.04 |
| GGTTTGCCTT | 0.96 |
| GGTTTGTAT | 0.947 |
| GGTTTGTATA | 0.936 |
| GGTTTTAAAC | 0.995 |
| GGTTTTCAAG | 0.985 |
| GGTTTTTAAC | 0.962 |
| GGTTTTTCCA | 0.999 |
| GGTTTTTCCT | 1.04 |
| GGTTTTTTT | 0.979 |
| GTAAAAAGCT | 1.04 |
| GTAAACGGAG | 1.04 |
| GTAAAGTGGT | 0.983 |
| GTAAATCTAA | 0.945 |
| GTAAATGCGA | 1.07 |
| GTAAATTGAC | 1.02 |
| GTAACATGAT | 1.05 |
| GTAACCATCA | 1.06 |
| GTAACGATTA | 1.01 |

| Sequence | switch fluorescence ratio |
| --- | --- |
| GTAACTTTTA | 0.986 |
| GTAACTTTTG | 1.03 |
| GTAAGATAAG | 1.03 |
| GTAAGCGCCG | 1.01 |
| GTAAGGCTGC | 0.866 |
| GTAAGTAAAT | 1.06 |
| GTAAGTGTGC | 1.01 |
| GTAAGTTATT | 1.14 |
| GTAAGTTCCA | 0.995 |
| GTAATAAACG | 1.07 |
| GTAATAACGA | 1.05 |
| GTAATATAAT | 0.969 |
| GTAATATCTG | 1.03 |
| GTAATCAAAA | 0.962 |
| GTAATCCACC | 1.06 |
| GTAATCGGGG | 1.02 |
| GTAATCGTCC | 1.08 |
| GTAATCGTTT | 0.983 |
| GTAATGAGGG | 0.949 |
| GTAATGGTTA | 0.956 |
| GTAATTCAGC | 0.969 |
| GTAATTTGGC | 1.01 |
| GTACCCAGGA | 1.46 |
| GTACCTTGCG | 0.993 |
| GTACGCAAAT | 1.48 |

| Sequence | switch fluorescence ratio |
| --- | --- |
| GTACGGAGGC | 1.03 |
| GTACGTCCGA | 1.05 |
| GTACGTCGCG | 1.02 |
| GTACTAGGAC | 0.994 |
| GTACTCACAG | 1.12 |
| GTACTGAAGC | 1.04 |
| GTACTTAGTG | 1.1 |
| GTAGAATTTG | 1.01 |
| GTAGACAAGG | 0.983 |
| GTAGACTTAG | 0.984 |
| GTAGAGCTAG | 0.993 |
| GTAGATGGCT | 1.02 |
| GTAGCGCAGC | 1.03 |
| GTAGCGGGGC | 1.35 |
| GTAGCTAGTG | 0.987 |
| GTAGCTGACT | 0.985 |
| GTAGGAAGG | 0.984 |
| GTAGGGCCGT | 1 |
| GTAGGGTAAA | 0.965 |
| GTAGGTAGAG | 0.968 |
| GTAGGTATTG | 0.993 |
| GTAGGTGAGC | 0.996 |
| GTAGGTGGAA | 0.983 |
| GTAGTAAGCA | 1.03 |
| GTAGTACAGC | 0.97 |

| Sequence | switch fluorescence ratio |
| --- | --- |
| GTAGTATCCA | 0.962 |
| GTAGTATGAT | 0.952 |
| GTAGTCAATT | 1.08 |
| GTAGTCATGC | 1.27 |
| GTAGTGCGCG | 1.02 |
| GTAGTGTGCG | 1.01 |
| GTAGTTATTC | 1 |
| GTAGTTCGCT | 0.913 |
| GTAGTTTCGA | 1.03 |
| GTATAAGGCC | 1 |
| GTATACGAGC | 1.06 |
| GTATATATGT | 1 |
| GTATATGGTA | 1.01 |
| GTATCAATTG | 0.974 |
| GTATCATGTT | 0.968 |
| GTATCGTGAG | 1.04 |
| GTATGACGGG | 1.02 |
| GTATGAGAT | 0.99 |
| GTATGCCGCG | 0.992 |
| GTATGGCGGT | 0.919 |
| GTATGGGAGT | 1.01 |
| GTATGTATCA | 0.939 |
| GTATGTCGTG | 0.995 |
| GTATGTGCGG | 1.01 |
| GTATGTGGAA | 1.02 |

| Sequence | switch fluorescence ratio |
| --- | --- |
| GTATGTGGTG | 1.01 |
| GTATGTTTAC | 1.01 |
| GTATGTTTTG | 0.981 |
| GTATTAATCC | 1.03 |
| GTATTAGGTA | 1.01 |
| GTATTGGTGG | 1.01 |
| GTATTTGGTA | 0.997 |
| GTCAAAATTA | 0.993 |
| GTCAAACGGG | 1.01 |
| GTCAACGGAG | 1.02 |
| GTCAAGTTTT | 0.998 |
| GTCAATAGGT | 1 |
| GTCAATCGTG | 0.991 |
| GTCACATCGA | 1.02 |
| GTCACC | 1.02 |
| GTCACCCAAG | 1.08 |
| GTCACCCCGA | 1.14 |
| GTCACCTTT | 0.98 |
| GTCAGATCGG | 0.983 |
| GTCAGCCTAG | 1.02 |
| GTCAGGCATC | 0.975 |
| GTCATAATCT | 1.02 |
| GTCATCAAAT | 1.03 |
| GTCATCGGTC | 0.976 |
| GTCATCTATG | 1.04 |

| Sequence | switch fluorescence ratio |
| --- | --- |
| GTCATTTGGT | 1.02 |
| GTCCCTATCG | 0.975 |
| GTCCCTCGA | 1.04 |
| GTCCGGAGCG | 3.12 |
| GTCCGGCGTA | 1.05 |
| GTCCTACGTA | 1.2 |
| GTCCTACTTT | 1.01 |
| GTCCTATAGA | 0.967 |
| GTCCTATCAC | 0.979 |
| GTCCTATCAG | 0.97 |
| GTCCTCAACC | 1.02 |
| GTCCTCGAGT | 1 |
| GTCCTCTGAG | 1.02 |
| GTCCTGCCTA | 1.03 |
| GTCCTTTTGC | 1 |
| GTCGAAGCCT | 1.08 |
| GTCGACGCCA | 1.13 |
| GTCGATAGGA | 0.94 |
| GTCGCACGGC | 0.962 |
| GTCGCCCATA | 1.01 |
| GTCGCCCTCG | 1.01 |
| GTCGCTATGC | 2.1 |
| GTCGGACTTT | 0.999 |
| GTCGGAGCCC | 0.963 |
| GTCGGATATA | 0.94 |

| Sequence | switch fluorescence ratio |
| --- | --- |
| GTCGGATCGT | 1.01 |
| GTCGGCTTAG | 1 |
| GTCGGGGCAA | 1.09 |
| GTCGGGGCGC | 1.04 |
| GTCGGGTGTA | 1.01 |
| GTCGGTGCAA | 1.24 |
| GTCGTCGCCT | 1.17 |
| GTCGTGGATG | 0.99 |
| GTCGTGGCAT | 1.02 |
| GTCGTGTAGA | 1.03 |
| GTCGTTAGCG | 1.04 |
| GTCGTTGCGG | 0.973 |
| GTCGTTTACT | 0.99 |
| GTCTAAAGTT | 1.01 |
| GTCTAAGAAA | 1.01 |
| GTCTAATAAG | 0.977 |
| GTCTACGGGA | 1.14 |
| GTCTGGATAG | 1.02 |
| GTCTGGGGAG | 1 |
| GTCTGGTTAC | 1.04 |
| GTCTGTTGCT | 1.1 |
| GTCTGTTTCG | 1.03 |
| GTCTTCTAGA | 1.04 |
| GTCTTTCACG | 0.976 |
| GTCTTTCGCA | 1.06 |

| Sequence | switch fluorescence ratio |
| --- | --- |
| GTCTTTGGAC | 0.991 |
| GTGAAAAAAC | 1.13 |
| GTGAAAACCC | 1.04 |
| GTGAACAACC | 1.03 |
| GTGAAGACGC | 1.05 |
| GTGAAGGGAT | 1.04 |
| GTGAATAAGA | 0.991 |
| GTGAATATTT | 1 |
| GTGAATCGCT | 0.947 |
| GTGAATGATA | 0.976 |
| GTGAATGCAA | 1.16 |
| GTGACAACTA | 0.994 |
| GTGACAAGTA | 1.04 |
| GTGACGCACG | 1.04 |
| GTGACTCTGG | 1.01 |
| GTGACTTAGA | 0.998 |
| GTGAGAAATT | 0.97 |
| GTGAGAATGA | 1.09 |
| GTGAGACAGC | 1.05 |
| GTGAGGGCG | 0.995 |
| GTGAGGTGCG | 0.993 |
| GTGAGTATAT | 1 |
| GTGAGTTATA | 0.99 |
| GTGAGTTTGA | 0.993 |
| GTGATAAACT | 1.03 |
